Measurements published in the supplement of paper PMC3724861.
Some of the results follow.

tested on: T1, Caupolican (Caup) homeodomain DNA-binding domain; assay: PBM E-score (8-mer, recovered from the published 9-mer minima) (E-score (dimensionless, -0.5 to 0.5)); Drosophila protein; higher = stronger relative binding preference, active = 0.31 or more
T1 sequence: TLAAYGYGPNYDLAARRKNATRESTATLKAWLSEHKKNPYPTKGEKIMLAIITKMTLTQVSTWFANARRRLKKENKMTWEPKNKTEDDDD
Procedure, shortened: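 Caup's homeodomain DNA-binding domain (residues 214-303) was made by in vitro transcription and translation and applied at 100 nM to custom-designed protein binding microarrays. Each value is an enrichment score that gives relative binding preference for a short DNA word, with higher meaning stronger. The 8-mer values were recovered from published 9-mer scores, each of which was the minimum of its two constituent 8-mer scores. A cutoff of 0.31 marks candidate sites.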

PBM E-score, ≥ 0.258:
ACACACCA

PBM E-score, active:
ACACAATA 0.31
ATCTTGTA 0.375
ACTTGTTA 0.368

PBM E-score, inactive:
GCTTAACC -0.0366
AGAGCCCC -0.28
ACACTTGA 0.076
CCACATAC 0.127
GAAAGTAC 0.00295
TCATAGAA 0.0848
GACGATAC 0.0456
GCATCATA 0.157
ACATAGGT 0.261
GACCAACA 0.172
ATAGAAGA 0.0591
ATCACGCC -0.0355
AGAGCGAG -0.167
CCTACGCC -0.234
TAGTGGGA -0.00106
ACCCGGGG -0.287
GATTACGC 0.0519
CTCGGTCA -0.0203
AAGTGATC 0.159
ATATTGGA 0.106
TCAGGAAA -0.0401
CCGAGCCA -0.155
CGAAAGAG -0.131
TAGTATGA 0.189
CAAATGCA 0.0587
AATTTGCT 0.104
GCAAATGA -0.0169
GCGAGAGC -0.245
AATTTAAT 0.178
AGCGAAAG -0.121
CATTATCA 0.177
ACCGCTAA 0.0277
AGACAATA 0.203
CCCAAAGA -0.158
CAGGTGTC 0.0721
ACATCCAT 0.241
GATCTAGA -0.0194
AACTAAGA 0.11
AGCCTCTG -0.217
AACTGCTA 0.036
GAAAGCGA -0.0802
GACAGTGA 0.102
TAAGCCAA -0.0619
TACACGCA 0.29
AGAATGTC 0.204
CGGACGTC -0.12
GACGTGAC 0.0644
ATAAGTCC 0.0515
ACCCAGAT -0.0464
TCGAAGCA -0.0205
GAGAACAC 0.236
CGCCATAA -0.0604
GAACCACA 0.0096
GGGTCACA -0.153
GGGCAGTA -0.0583
CGGTACGC -0.179
CGTCGCAC -0.121
ACGGGATG -0.00996
CCTGTTCC 0.0821
AGATTTCA 0.0353
GTATTTGA 0.196
ATCTATTC 0.12
TATTAAGA 0.0425
GGAGCGAA -0.114
ATGGCATC 0.0355
AAGTGAGG -0.0705
CTTCGAAA 0.033
GTTCAAAC 0.109
ATGAAGAG -0.0365
ACCGCTCC -0.189
AACAGTCA 0.0664
AGTGGCAC -0.0836
CGGTAACC -0.0829
CAGGCGGG -0.207
CATACTGC -0.0312
CCCTACCG -0.185
TAAAAGAA 0.0807
TGGTAGAA 0.0234
ATCTACGC 0.0681
CAAGAATA 0.00684
CCTTGAGC -0.132
GATCCGTA -0.136
ATGGAAGG -0.0735
CATGGCCG -0.0998
CACAACGG 0.00345
TGCACACA 0.12
CTTCGATC -0.107
ATGGTACC 0.0486
AAGAACAA 0.259
AAACAGGC 0.0748
GGAGAGAA -0.109
AGATTTAC 0.146
ACTGTCAT 0.18
AAGCCGTC -0.173
GAACCTGC 0.0186
CGTACAAA 0.18
CCACGAAG -0.116
ATCCGAGC -0.047
CCGTGCCG -0.172
CTTTACCA 0.057
AGACTAAA -0.00285
CACGCCAG -0.169
GTGAGATA 0.0321
CCTGCCCG -0.176
AGAATGTG 0.0382
GAGCAAGA -0.00954
CAGCCTCG -0.037
CCGAGAGG -0.278
GTTCGGGA 0.0323
GGTGTTTA 0.124
AAATTTGT 0.128
GAGAAGAC -0.118
AGGAAGAT -0.0551
CCGTCGCG -0.17
CAGAAGAG -0.0491
ACTATCTA 0.192
ATTCCGTG 0.133
AATAGGGA -0.0269
CACAGCGG -0.114
GAACAATA 0.166
TCAGGCGA -0.124
ATTAGTGC 0.105
GCTGGCAA -0.0692
AGATCCGC -0.129
CAGCACAG 0.0685
AGGAGTCG -0.0297
GTGTTAGA 0.224
GCGACTGA -0.131
AAATCTAG -0.0103
CAACGATA 0.153
ATGCCAAC 0.0457
CTGGGCCA -0.265
ATTATAAC 0.136
CGAACCTA -0.0301
ACCCGCAA -0.0708

PBM E-score, ≥ 0.118:
ATGACTCA

PBM E-score, ≥ 0.091:
GTAGACGA

PBM E-score, ≥ 0.154:
ACAGTCAT

PBM E-score, ≥ 0.265:
TACGGACA
